From PubChem BioAssay (NCI) come the findings set out here.

Structures are written as SMILES.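 Where inhibition never reached the appropriate level, the endpoint shown equals the highest concentration tested. Otherwise, values were interpolated linearly from a five-concentration, 48-hour dose response in 96-well plates. GI50: concentration for 50% inhibition of growth. TGI: concentration producing complete growth inhibition.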 Peptide text beside a SMILES is read from it.

For the assay, the system named is NCI-H322M lung. Briefly: NCI anticancer screen, dose series, 48 h.

`COc1ccc(N=NN2CCCC2)cc1` had a TGI above 100 µM.
As to `O=c1c(-c2ccccc2)c[nH]c2cc([N+](=O)[O-])c(/C(Cl)=C/c3ccccc3)cc12`, the TGI is above 46.4 µM.
Take `Oc1ccc2ccccc2c1/C=N\Nc1ccccn1`: the GI50 is 0.257 µM and the TGI stood at 1.46 µM.
The molecule `Cc1cn2c(/C=C3/C(=O)Nc4ccccc43)c(-c3ccccc3)nc2s1` registered a TGI above 100 µM.
As to `COc1cc2c(/C=C3\C(=O)Nc4ccc(Br)cc43)c(Cl)n(C)c2cc1C`, the GI50 was 2.46 µM and the TGI is 10.4 µM.
`COC(=O)c1c(C)nc(C)c(N=O)c1-c1ccccc1C(F)(F)F` displayed a TGI above 100 µM.
Take `NC(=O)NC(=O)CI`: the GI50 was above 42 µM and the TGI was above 56.6 µM.
In the same order, the values of `O=C(Nc1ccccc1Cl)c1ccc(NC2=C(Cl)C(=O)N(Cc3ccccc3)C2=O)cc1` are above 100 µM and above 100 µM.
`CC(=O)OCCOCNC(=S)N/N=C(\C)c1ccco1` registered a TGI above 100 µM.
Take `Cc1ccc(S(=O)/C=C(\NC(=O)OCc2ccccc2)C(F)(F)F)cc1` (stereo not given): the TGI was above 100 µM.
Take `CNCCNc1nc2ccccc2c2c(=O)c3cccc(OC)c3sc12`: the GI50 is 1.53 µM and the TGI stood at 3.06 µM.
`COc1ccc2c(c1)CCC(CN1CCN(CCOC(c3ccc(F)cc3)c3ccc(F)cc3)CC1)=C2` gave a TGI above 100 µM.
For `CC(C)(C)CC(C)(C)Cc1ccc(OCCOCC[N+](C)(C)Cc2ccccc2)cc1`, the GI50 was 3.91 µM and the TGI was found to be 17.4 µM.
In turn, `NS(=O)(=O)c1ccc(CNC(=S)NC(=O)Nc2ccc(Cl)c(Cl)c2)cc1` came in with a TGI above 100 µM.
As for `COc1ccc(C2CC(c3cc(OC)c(OC)c(OC)c3)=NN2)cc1` (stereo not given), the GI50 was 74.7 µM and the TGI is above 100 µM.
In the same order, the values of `Cc1cc(S(N)(=O)=O)c(S/C(=N\NS(=O)(=O)c2ccc(Cl)cc2)c2ccc(Cl)cc2)cc1Cl` are above 100 µM and above 100 µM.
`C=C(C)C1CC2=C(C(=O)OC)C=C(O2)C(C(=C)C)[C@@H]2OC(=O)/C(=C\C1O)[C@H]2N(C)C` (stereo not given in full) registered a TGI of 48.9 µM.
On the same count and under the same terms, in the case of `COC(=O)C1Cc2c([nH]c3ccccc23)-c2[nH]c3ccccc3c2CC(NC(C)=O)C(=O)NCC(=O)N1` (stereo not given) it was above 100 µM.
With `COc1ccc(C(=O)Nc2cccc(C3CC(=O)c4c(cc(OC)c(OC)c4OC)O3)c2)cc1` (stereo not given), the GI50 is 5.36 µM and the TGI was above 100 µM.
Regarding `OC1(c2ccc(Cl)cc2)c2ccccc2C2=Nc3ccccc3CN21` (stereo not given), the TGI is above 100 µM.
On to `CC(C)(C)[Si](C)(C)OCC1OC(n2ccc(=O)[nH]c2=O)C(O[Si](C)(C)C(C)(C)C)/C1=N/O` (stereo not given), for which the TGI worked out at 18.4 µM.
`Cc1nc2c(=O)[nH]c(=O)nc-2n(CCO)c1C` came in with a TGI above 100 µM.
For `CCOC1NC(=O)Oc2ccccc21` (stereo not given), the TGI is above 100 µM.
Same read-out and setting: in the case of `CCCCCC(=O)N[C@H](C(=O)N[C@H](C(=O)N(C)[C@@H](CC(C)C)C(=O)N1CCC[C@H]1C(=O)N1CCC[C@H]1C(=O)O[C@H](C(=O)N1C(=O)C=C(OC)[C@@H]1Cc1ccccc1)C(C)C)C(C)C)C(C)C` (HELM PEPTIDE1{[CCCCCC(=O)[*:2]].V.V.[meL].P.P.[COC1=CC(=O)N(C(=O)[C@@H](O[*:1])C(C)C)[C@H]1Cc1ccccc1]}$$$$V2.0) it was above 100 µM; in that of `Cc1ccccc1NC(=O)c1[nH]c(=S)nc(N)c1-c1ccccc1C`, above 100 µM.
On the same count and under the same terms, for `COc1cc(O)c(C(=O)/C=C/c2ccc(O)cc2)cc1Oc1ccc(C(=O)/C=C/c2ccc(O)cc2)c(O)c1` the value was 9.37 µM; for `CC(C)(C)c1ccc(-c2nnc(SCc3ccc(Cl)cc3)n2-c2cccc(C(F)(F)F)c2)cc1`, above 100 µM.
Take `O=C(CC1C(=O)Nc2ccccc2S1=O)Nc1cccc(Cl)c1` (stereo not given): the TGI was 97.8 µM.
Same read-out and setting: in the case of `CC(=O)c1nc2ccccc2n1CC(=O)c1ccc([N+](=O)[O-])cc1` it was above 100 µM.
Turning to `COC(=O)c1ccc2c(c1)nc(-c1ccc(Cl)cc1)n2-c1cc(C(C)(C)C)[nH]n1`, the GI50 was 10.4 µM and the TGI was determined as 86.4 µM.
`Cc1c2cc[n+](C)cc2c(C)c2c1[nH]c1ccc(O)cc12` returned a TGI of 66.5 µM.
Still for that read-out and setting: in the case of `COc1cccc(-n2nnc3c(N)nc(N)nc32)c1` it was above 100 µM.
As for `O=C1NC(=NCc2ccccn2)S/C1=C\c1ccc2ncccc2c1`, the GI50 is 7.95 µM and the TGI is above 25 µM.
Take `O=C(/C=N/O)c1c(-c2ccccc2)[nH]c(-c2ccccc2)c1-c1ccccc1`: the TGI was 24.6 µM.
As to `Cc1ccc(S(=O)(=O)OC2CN3CCC2CC3)cc1` (stereo not given), the TGI was above 100 µM.
For `CC(=O)NC1C(OCC(=O)NC(C)C(=O)NC(CCC(=O)NCCCCCNc2ccc([N+](=O)[O-])c3[nH]c4ccccc4c(=O)c23)C(N)=O)C(O)C(CO)OC1(C)OCc1ccccc1` (stereo not given), the TGI was above 50 µM.
With `CC(C)(C)NNc1c([N+](=O)[O-])cnn(-c2ccccc2)c1=O`, the TGI came out at 23.4 µM.
`COc1ccc2c(CNCCCCO)cc3cc4c(cc3c2c1)OCO4`: the GI50 was 2.43 µM and the TGI came to 7.6 µM.
In the case of `COc1nc2c(nc(N)n2C2OC(CO)C(O)C(O)C2O)c(=O)n1C` (stereo not given), the TGI is above 100 µM.
The same measure, in the same setting: for `CC(=O)c1ccc2c(c1)CC1(C2)Cc2cc3c(cc2C1)C(=O)CC3` (stereo not given) the value was 19.9 µM.
On to `C=C1C(=O)O[C@H]2[C@H]1CC/C(Cn1cc(CCC)nn1)=C\CC[C@@]1(C)O[C@@H]21`, for which the GI50 was 21.5 µM and the TGI is 59.5 µM.
The molecule `CCCCc1cc2c(cc1O)CCC1C2CC[C@@]2(C)C1CC[C@@H]2O` (stereo not given in full) came in with a TGI of 40.3 µM.
Still for that read-out and setting: for `C/C=C/C1(NS(=O)(=O)c2ccc(C)cc2)CCC(C(C)(C)C)CC1` (stereo not given) the value was 75.9 µM.
Still for that read-out and setting: in the case of `Cc1cc2nc3c(C#N)c(-c4ccccc4)/c(=C\Nc4cccc(C(F)(F)F)c4)c(=O)n3c2cc1C` it was above 100 µM.
As to `CC(O)CN(CCN(CC(C)O)CC(C)O)CC(C)O.O=[N+]([O-])O.[Cu+2]` (stereo not given), the GI50 was 29.6 µM and the TGI is above 100 µM.
On to `O=Nc1c(-c2cccc([N+](=O)[O-])c2)nc2ncccn12`, for which the GI50 is 25.1 µM and the TGI worked out at 88.1 µM.
Turning to `COC(=O)c1c(-c2ccccc2)csc1NC(=O)c1c(-c2ccccc2)noc1C`, the GI50 is above 100 µM and the TGI is above 100 µM.
Molecule `N=C(/C=C/c1ccc(-c2cn3cc(/C=C/C(=N)N4CCOCC4)ccc3n2)cc1)N1CCOCC1` gave a TGI above 100 µM.
With `O=Cc1ccc(C(F)(F)F)cc1.[C-]#[O+].[C-]#[O+].[C-]#[O+].[Cr]`, the GI50 is 19.7 µM and the TGI came to 68.4 µM.
`CCOC(=O)C1(C(=O)OCC)C[C@H]2CON=C2[C@@H]1c1ccc(C(F)(F)F)cc1` showed a TGI above 100 µM.
On to `COc1cc2c(cc1-c1c(C)noc1C)ncc1nc(C3CCCCC3)n(C3CCC(OC(F)F)CC3)c12` (stereo not given), for which the GI50 is 4.35 µM and the TGI was above 100 µM.
`O=C1C(c2ccccc2)=C(c2ccccc2)C(c2ccccc2)/C1=C1\C(=O)C(c2ccccc2)=C(c2ccccc2)C1c1ccccc1` (stereo not given) came in with a TGI above 100 µM.
Consider `Cc1c2c(nn1-c1ccc(S/N=C3\SCC(=O)CN3c3ccccc3)cc1)-c1ccccc1CC2`, for which the GI50 was above 50 µM and the TGI is above 50 µM.
Molecule `CCCCc1ccc(N2C(=O)c3cc(C)cnc3S2(=O)=O)cc1` came in with a TGI above 100 µM.
Turning to `Cc1ccc(Cl)cc1Nc1nc(C(F)(F)F)ccc1C(=O)Oc1ccc(Cl)cc1`, the GI50 was 10.8 µM and the TGI turned out to be 35.9 µM.
Molecule `CC(=O)OC(C)(C)C1CCC(C)(C(O)COc2ccc(CCNC(=O)c3ccccc3)cc2)O1` (stereo not given) had a TGI above 100 µM.
Regarding `Cc1ccc(/C=C2\CCOC2=O)cc1`, the GI50 is above 100 µM and the TGI is above 100 µM.
Consider `CCCCN(CCCC)CC(=O)c1ccc2cc(Cl)c3ccccc3c2c1`, for which the TGI was above 100 µM.
Consider `CCOC(=O)Nc1ccc(S(=O)(=O)Nc2ccc(Br)cc2)cc1`, for which the TGI is above 100 µM.
The same measure, in the same setting: in the case of `COc1ccccc1NC(=S)N/N=C(/c1ccccc1)c1ccccn1` it was 20.6 µM; in that of `C[N+](C)(C)CCCCCc1c2nc(c(CCCCC[N+](C)(C)C)c3ccc([nH]3)c(CCCCC[N+](C)(C)C)c3ccc([nH]3)c(CCCCC[N+](C)(C)C)c3nc1C=C3)C=C2`, above 100 µM; in that of `CC(=O)O[C@H]1CC[C@@]2(C)C(=CC[C@@H]3C2CC[C@]2(C)Nc4oncc4CC32)C1` (stereo not given in full), above 100 µM.
For the molecule `COc1ccc(-n2c(N)c(C(=O)NCCN3CCOCC3)c3nc4ccccc4nc32)cc1OC`, the GI50 was 9.94 µM and the TGI was above 100 µM.
For the molecule `C[n+]1c2ccccc2c(NC2CCNCC2)c2[nH]c3ccccc3c21`, the GI50 is 0.254 µM and the TGI is 5.01 µM.
The matching figures for `NS(=O)(=O)c1ccc(-n2nc(-c3ccc(Cl)cc3)cc2C2=CC(=O)C=CC2=O)cc1`: 17.7 µM and 56.4 µM.
In turn, `CC(=O)C1=CC=C/C1=N\Nc1ccccc1` came in with a TGI of 23 µM.
The same measure, in the same setting: in the case of `C[C@H](NC(=O)OC1C2C=CC(O)C1CC2)c1ccccc1` (stereo not given in full) it was above 100 µM; in that of `COc1ccc(N(C(=O)OC(C)(C)C)[C@@H]2C(C)=C[C@H]([S@@](=O)c3ccc(C)cc3)[C@@H]3C(=O)N(C)C(=O)[C@@H]32)cc1`, 72.2 µM.
Still for that read-out and setting: in the case of `CCOC(=O)[C@H]1Nc2ccc(O)cc2C2c3ccccc3CC21` (stereo not given in full) it was above 100 µM; in that of `CCCCCCc1cc(C=O)sc1-c1ccc(-c2sc(-c3ccc(-c4ccc(-c5cc(CCCCCC)c(-c6ccc(-c7sc(C=O)cc7CCCCCC)s6)s5)s4)s3)cc2CCCCCC)s1`, above 100 µM.
Consider `O=C1c2cccnc2-c2nc(-c3ccc([N+](=O)[O-])cc3)cc3c2c1nc1ccccc13`, for which the GI50 is 6.33 µM and the TGI is 21 µM.
Turning to `CCN(CC)P1(=S)Oc2ccc3ccccc3c2-c2c(ccc3ccccc23)O1`, the TGI is above 100 µM.
`CC1(C)OC1CC/C(=C/CBr)CBr` (stereo not given): the TGI turned out to be 41.6 µM.
Still for that read-out and setting: in the case of `CC1(C)COC(c2cccc(C3=NC(C)(C)CO3)c2)=N1` it was above 100 µM.
For the molecule `Cn1cccc1-c1cc(-c2ccc(Br)cc2)nc(N)c1C#N`, the GI50 was above 100 µM and the TGI was above 100 µM.
Regarding `CC(=O)Nc1ccc(C(=O)N[C@@H]2C(=O)N3[C@@H]2SC(C)(C)[C@@H]3C(=O)O)cn1`, the TGI was above 100 µM.
Same read-out and setting: for `Cc1cccc(C)c1NC(=O)C(=O)C1C(=O)N(c2ccccc2)N=C1N` (stereo not given) the value was above 100 µM.
Take `Fc1ccc(Nc2nc(Nc3ccc(-c4nc5ccccc5[nH]4)cc3)nc(N3CCCC3)n2)cc1`: the GI50 was 3.74 µM and the TGI worked out at 15.9 µM.
